From PMC4336329 (PLoS ONE, 2015)
In all, about 310,000 compounds went through this assay and about 14,000 (4.5%) showed an effect of 50% or more. The effect is printed as a negative number. Some of the results follow.

These compounds were tested against human ether-à-go-go-related gene (hERG) potassium channel (human, UniProt Q12809) (assay: primary screen, population patch clamp on CHO cells stably expressing hERG).
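Note: peak tail current of the secondary pulse compared with the same well before compound.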

Chain of human ether-à-go-go-related gene (hERG) potassium channel (Q12809 whole entry, looked up): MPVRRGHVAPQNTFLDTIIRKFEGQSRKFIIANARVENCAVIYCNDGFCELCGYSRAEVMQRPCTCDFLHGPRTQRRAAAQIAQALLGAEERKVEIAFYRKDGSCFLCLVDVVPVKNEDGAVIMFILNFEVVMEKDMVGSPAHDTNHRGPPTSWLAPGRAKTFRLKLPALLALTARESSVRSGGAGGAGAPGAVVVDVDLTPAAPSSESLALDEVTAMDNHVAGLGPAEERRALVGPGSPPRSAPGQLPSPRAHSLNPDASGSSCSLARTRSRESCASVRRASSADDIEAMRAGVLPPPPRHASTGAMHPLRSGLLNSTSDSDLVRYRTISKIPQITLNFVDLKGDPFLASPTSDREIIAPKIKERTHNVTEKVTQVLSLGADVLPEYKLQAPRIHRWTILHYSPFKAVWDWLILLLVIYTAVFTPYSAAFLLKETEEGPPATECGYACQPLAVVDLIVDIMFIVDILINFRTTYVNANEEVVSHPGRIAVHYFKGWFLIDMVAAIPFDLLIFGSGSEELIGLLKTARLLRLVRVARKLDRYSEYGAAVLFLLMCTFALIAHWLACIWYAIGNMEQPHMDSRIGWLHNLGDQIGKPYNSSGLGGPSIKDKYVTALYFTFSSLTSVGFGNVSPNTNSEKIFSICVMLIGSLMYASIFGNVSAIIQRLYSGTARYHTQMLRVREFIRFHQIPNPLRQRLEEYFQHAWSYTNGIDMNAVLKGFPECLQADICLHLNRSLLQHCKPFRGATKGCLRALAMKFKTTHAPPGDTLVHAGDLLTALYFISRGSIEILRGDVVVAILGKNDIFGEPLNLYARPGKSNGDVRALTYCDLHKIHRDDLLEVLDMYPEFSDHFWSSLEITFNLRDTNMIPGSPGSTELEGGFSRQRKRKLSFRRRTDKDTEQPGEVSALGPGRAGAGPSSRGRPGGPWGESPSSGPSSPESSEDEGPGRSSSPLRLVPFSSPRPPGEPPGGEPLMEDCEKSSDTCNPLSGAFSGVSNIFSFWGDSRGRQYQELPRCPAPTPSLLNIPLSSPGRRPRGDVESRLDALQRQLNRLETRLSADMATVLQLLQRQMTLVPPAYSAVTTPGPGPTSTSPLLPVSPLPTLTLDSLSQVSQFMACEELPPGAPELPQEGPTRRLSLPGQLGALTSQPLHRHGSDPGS

SMILES	hERG current change (%, negative = inhibition) at 10uM [%]
COc1ccc(CN(C(=O)c2cccc(OC)c2)C2CCS(=O)(=O)C2)cc1 (stereo not drawn)	-8.88
CCOC(CNc1ncnc2sc(-c3ccccc3)cc12)OCC	-11.5
CCN(CC)c1ccc2c(C)c(-c3ccc(N)cc3)c(=O)oc2c1	10.6
O=C1c2cccc3c(N4CCCCC4)ccc(c23)C(=O)N1c1ccc(O)cc1	18.6
Cc1ccc(OCCn2c(SCCO)nc3c(N)ncnc32)cc1	-14.4
C(=N\NC(=Nc1ccccc1)c1ccccn1)/c1ccccn1	7.19
C#CCOc1c(Cl)cc(/C=C2/C(=O)ON=C2C)cc1OC	22.3
O=C(O)C1C2C=CC(O2)C1C(=O)NCCC1=CCCCC1 (stereo not drawn)	7.94
O=C(COC(=O)C1CCC1)Nc1ccccc1Sc1ccccc1	7.34
Cc1ccc(CNS(=O)(=O)c2c(C(=O)N3CCCCC3)c(C)n(C)c2C)o1	22.1
Nc1nc2ccccc2n1CCOc1ccc(Br)cc1	-61.2
CC(=O)Nc1ncc(Cc2cccc(Cl)c2)s1	9.03
CCOC(=O)c1sc(NC(=O)COC(=O)C(CCSC)NC(C)=O)nc1C (stereo not drawn)	-14.7
CCCSc1nnc(NC(=O)c2sc3nc(-c4cccs4)ccc3c2N)s1	10
CC1CCN(c2ccccc2NC(=S)NC(=O)c2ccc(-c3cccc([N+](=O)[O-])c3)o2)CC1	3.63
COc1cccc(C2CC(c3cccc(Br)c3)n3ncnc3N2)c1 (stereo not drawn)	-47.4
COC(=O)c1ccc(Cn2nc(-c3ccccc3)ccc2=O)cc1	4.93
Cc1cc(NC(=O)Cn2cc([N+](=O)[O-])cn2)n(Cc2ccc(F)cc2)n1	-11.9
CCc1nc2ccc(F)cc2c(C(=O)NC2CCCCC2C)c1C (stereo not drawn)	-4.83
S=C(Nc1ccccc1Cl)N1CCC(c2ccccc2)C1 (stereo not drawn)	-2.34
COc1ccc2nc(NC(=O)CSc3nc4ccccc4o3)sc2c1	9.02
c1coc(-c2nnc(-c3cccs3)o2)c1	13.6

SMILES	hERG current change (%, negative = inhibition) at 10uM [%]
O=C(OCn1nnc2ccccc2c1=O)c1cccs1	-8.86
Cc1ccc(C)c(N2CCN(C(=O)Cn3c(=O)[nH]c4ccsc4c3=O)CC2)c1	-4.12
COc1ccc(C(=O)N=S2CCN(C(=O)c3ccc(Cl)cc3)CC2)cc1	-29
CC(C)(C)c1ccc(OCC(=O)NNC(=S)NC(=O)c2ccccc2[N+](=O)[O-])c(Br)c1	23.1
Cc1ccc(-n2c(=O)cc(N3CC(C)OC(C)C3)[nH]c2=O)cc1 (stereo not drawn)	0.907
Cc1ccc(NC(=O)CNC(=O)Cc2cccc3ccccc23)c(O)c1	22.8
Cc1nn(-c2ccccc2)c2c1C(c1ccc(F)cc1)C(C#N)=C(N)O2 (stereo not drawn)	8.18
COc1cc(C2CC(=O)C3=C(C2)Nc2ncnn2C3c2cccs2)cc(OC)c1OC (stereo not drawn)	1.83
Cc1ccc(NC(=O)c2cccc(S(=O)(=O)N3CCCC3)c2)nc1	-7.18
O=C(Nc1sc2c(c1C(=O)O)CCCCC2)c1ccccc1F	26.5
COc1cc(OC)c(NC(=S)NCc2ccc(F)cc2)cc1Cl	-0.244
COc1ccccc1NC(=O)c1ccc(N)cc1	5.63
CC1CN(C(=O)c2cccc(COc3ccccc3Cl)c2)CC(C)O1 (stereo not drawn)	-49.3
COc1ccc(C)cc1NC(=O)c1ccc(NS(=O)(=O)c2c(C)noc2C)cc1	3.13
Cc1ccc(-c2nc(-c3cccnc3)sc2CC(=O)Nc2ccc3nc(C)sc3c2)cc1	1.56
O=C(Nc1ccc(C(F)(F)F)cc1)C1CCCCN1S(=O)(=O)c1ccccc1 (stereo not drawn)	-23.3
CCn1cc(/C=C/C(=O)Nc2ccn(Cc3c(F)c(F)cc(F)c3F)n2)cn1	-14.9
CC1(C)OC(=O)C=C[C@]2(C)[C@H]3CC[C@@]4(C)[C@H](c5ccoc5)OC(=O)[C@H]5O[C@]54[C@]3(C)C(=O)C[C@@H]12	-10.3
CN(C)c1ccc(N/C=C/C(=O)c2ccco2)cc1	4.67
CC1CCCCN1S(=O)(=O)c1ccc(N(C(=O)c2cnccn2)C(C(=O)NC2CCCCC2)c2cccs2)cc1 (stereo not drawn)	-26.3
Cc1nc(N2CCC(C(N)=O)CC2)c2nnn(Cc3ccccc3)c2n1	16.3
COc1ccc(/C=C(/CC(=O)NCc2ccc(Cl)cc2)c2nc3ccccc3s2)cc1	9.4

SMILES	hERG current change (%, negative = inhibition) at 10uM [%]
CC1(C(=O)O)CCC(C(N)=O)C1(C)C (stereo not drawn)	1.19
COc1ccc(CNC(=O)C(OC(C)=O)c2ccccn2)cc1 (stereo not drawn)	6.09
COc1ccccc1-n1cnc2cc(C(=O)NCC3CCCO3)ccc21 (stereo not drawn)	-13.7
O=C(CCCSc1nc2ccccc2[nH]1)NCc1ccccc1Cl	-19.3
S=c1[nH]nc(COc2ccc(Cl)cc2)n1-c1ccccc1	15.5
CC1CCCC(C)N1CCCNC(=O)CCn1c(=O)c2cccn2c2cccnc21 (stereo not drawn)	16.7
CN1CCN(c2ccc(NC(=O)c3ccc(Oc4ccccc4)cc3)cc2)CC1	11.1
CCC(CC)C(=O)NCCCCc1ccccc1	1.79
CCOC(=O)c1ccc(NC(=S)N2CCN(Cc3ccccc3)CC2)cc1	3.95
CC(=O)CSc1nc(N)c(C#N)c(-c2cccs2)c1C#N	13.1
CN(C)CCNC(=O)C(=O)C1C(=O)Nc2ccccc21 (stereo not drawn)	8.38
CCO.Cc1cc(C)n(CCc2nc(-c3ccc(-c4ccccc4)cc3)cs2)n1	10.1
O=C(c1nn2c(C(F)(F)F)cc(-c3cccs3)nc2c1Br)N1CCCc2ccccc21	14.3
CCCOc1ccc(-c2c(=O)n(O)c3ccccc3[n+]2[O-])cc1	18.3
CCN1C(=O)N[C@@H](c2ccccc2)[C@H](C(C)=O)[C@H]1C	12.9
CC(C)N(Cc1cnn(C)c1)C(=O)C1CCC(=O)N(CCc2cccc(F)c2)C1 (stereo not drawn)	2.63
COc1ccc(C(=O)CSc2nnc(NC(=O)C3CC(=O)N(c4ccccc4C)C3)s2)cc1 (stereo not drawn)	9.04
COc1ccc(-c2c(NC(=O)c3ccco3)oc3ccccc3c2=O)cc1	15.2
CN(C)CCn1nnc2c(=O)oc3ccccc3c21.Cl	-8.48
CCc1c(C(C)S(=O)(=O)c2ccc(C)cc2)[nH]c(=O)n1-c1ccc(C)cc1 (stereo not drawn)	13.5
O=C1c2ccccc2C(=O)N1CN(C(=O)COc1ccc(Cl)cc1Cl)c1cccc(F)c1	1.4
COc1cc(CCC(=O)NCC2CCCO2)cc(OC)c1OC (stereo not drawn)	19.5

SMILES	hERG current change (%, negative = inhibition) at 10uM [%]
COc1ccc(CN2CCNC(=O)C2CC(=O)N(C)Cc2ccno2)c(F)c1 (stereo not drawn)	3.58
CCCC1(c2ccccc2)NC(=O)N(CC(=O)Nc2cc(C)on2)C1=O (stereo not drawn)	23.6
CN1CCc2c(sc3c2c(=O)n(-c2ccccc2)c2n[nH]c(=S)n32)C1	-2.7
OCCC#Cc1ccc(CN2CCN(Cc3ccsc3)C(CCO)C2)cc1 (stereo not drawn)	-4.59
CCOC(=O)N1CCN(c2ccc(C(C)=O)cc2F)CC1C (stereo not drawn)	-35.3
CCCc1ccc(S(=O)(=O)N/N=C\c2ccc3c(c2)OCO3)cc1	-0.771
O=C(CCN1C(=O)C2CCCCC2C1=O)Nc1nc2ccc(F)cc2s1 (stereo not drawn)	-6.97
CC(C)(C)c1cc(NC(=O)Nc2ccccc2OC(F)(F)F)no1	26.4
CCOc1ccc(/C=N/NC2=NCCCCC2)cc1	-69.3
COc1cc(OC)cc(C(=O)NC(C)CNc2ccc(Cl)cc2[N+](=O)[O-])c1 (stereo not drawn)	-11.7
O=c1[nH]c2cc3c(cc2cc1CN(Cc1nnnn1CC1CCCO1)C1CCCCC1)OCO3 (stereo not drawn)	6.43
N#Cc1cccc(Cn2cc(C(F)(F)F)ccc2=O)c1	-1.31
COc1ccc(C(=O)NC2CC2)cc1OC1CCN(Cc2ccc(F)c(F)c2)CC1	-75.2
CCOc1ccc([C@@H]2CC=C(C(=O)O)CN2S(=O)(=O)c2ccc(C)cc2)cc1	6.99
CCn1nc(C(=O)OCC(=O)N2CCc3ccccc32)c2ccccc2c1=O	-7.86
FC(F)(F)c1cnc(-c2cnc(-c3ccccn3)nc2)c(Cl)c1	11.6
CC(C)(C)C1CCc2c(sc(NC(=O)c3ccco3)c2C(N)=O)C1 (stereo not drawn)	19.8
Cc1ccc(C(c2nnnn2C2CCCC2)N2CCc3ccccc32)cc1 (stereo not drawn)	9.69
Cc1cc(NC(=O)c2ccc(Cl)cc2Cl)n(CCC#N)n1	16.5
CCOC(=O)c1nnn(-c2nonc2-n2cccc2)c1CN1CCC(C(=O)OCC)CC1	-10.3
CCc1cccc(C)c1NC(=O)CCCN1C(=O)CN(C)C1=O	-1.59
